# Data as given in PubChem BioAssay AID624202 (National Center for Advancing Translational Sciences (NCATS), 2012).
# The whole screen tested about 380,000 compounds, of which about 4,000 (1.1%) were called active. Inconclusive means that the source gave no clear call. Such entries were picked first, then a sample of the others. Calls follow the shape of the dose curve; as a rule, active = well fitted activation curve with a large enough effect; inconclusive = small, poorly fitted or top-dose-only effect; inactive = no such curve, though single readings can be large or run the other way. Potencies of inconclusive entries are doubtful fits and often do not repeat.
# Assay: qHTS Assay to Identify Small Molecule Activators of BRCA1 Expression; also: nearly all actives have a fitted effect of over 80% in size
# Settings: MCF7-BRCA1-FFLuc reporter, luminescence, 48 h; activation: at 46.1 µM (top of the series), scaled: vehicle 0%, 10 µM genistein 100% unless noted
# In short: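 MCF7 cells carrying a BRCA1-firefly luciferase reporter (2000 cells/well, phenol-red free MEM) were attached for 2 h at 37 °C, then given compounds for 48 h. Luminescence was read 15 min after luciferase reagent; activity normalized to genistein (10 microM) and DMSO.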
# Potency is read from the fitted curve at half-maximal effect; tags tell the direction and shape of the fitted curve.
SMILES,Potency,activation
CCN(CC)C(=N)/C(C#N)=N/Nc1ccccc1,"inconclusive: 10 µM [activator, partial curve, poor fit]",
CN(C)/C=C1\N=C(c2ccc3c(c2)OCO3)OC1=O,active: 7.94 µM,
O=S(=O)(c1ccc2ccccc2c1)N1CCN(c2ccc(O)cc2)CC1,inactive,
Cc1noc(NS(=O)(=O)c2ccc(N3Cc4ccccc4C3=O)cc2)c1C,"inconclusive: 35.5 µM [activator, single point]",
CCN(CC)C(=O)c1cc(-c2ccccc2OC)on1,"inconclusive: 11.2 µM [activator, partial curve, poor fit]",
O=C(CCCC(=O)c1ccc(F)cc1)c1ccc(F)cc1,active: 2.51 µM,
Cc1cc(C(=O)COC(=O)c2ccc(O)cc2O)c(C)n1C(C)C,"inconclusive: 3.16 µM [activator, full curve, poor fit]",
NC(=S)NNC(=O)C12CC3CC(CC(C3)C1)C2,inactive,
COc1ccc(NC(=O)Cn2c(-c3ccc(OC)cc3)cn(-c3ccc(C)cc3)c2=O)cc1,"inconclusive: 35.5 µM [activator, single point]",
O=C(N/N=C/C(Cl)=C\c1ccccc1)c1ccco1,"inconclusive: 2 µM [activator, full curve, poor fit]",
COc1ccc(S(=O)(=O)NCCc2sc(-c3ccccc3)nc2C)cc1OC,inactive,
C(=N\Nc1cc(N2CCCCC2)ncn1)/c1ccco1,"inconclusive: 7.08 µM [activator, partial curve, poor fit]",
Cc1ccc(NC(=O)CSc2ncccc2C(=O)Oc2cccc([N+](=O)[O-])c2)cc1Cl,"inconclusive: 1.26 µM [activator, full curve, poor fit]",
C=CCNC(=O)COCc1cc(-c2ccc3c(c2)OCO3)on1,"inconclusive: 11.2 µM [activator, partial curve, poor fit]",
COc1ccc2cnn(-c3ccc(C)cc3)c(=O)c2c1OC,active: 4.47 µM,
O=C(CSc1ccsc1[N+](=O)[O-])NCc1ccccc1,"inconclusive: 7.94 µM [activator, partial curve, poor fit]",
Cc1cc(C)n2cc(CSc3ccc(Br)cc3)nc2n1,"inconclusive: 8.91 µM [activator, partial curve, poor fit]",
CC(/C=N/NC(=O)c1ccccc1F)=C\c1ccccc1,"inconclusive: 1 µM [activator, full curve, poor fit]",
O=C(NC1CCCCC1)C(c1ccccc1)N(C(=O)Cc1ccsc1)c1ccccc1 (configuration not stated),inactive,
CN(C(=O)CSc1ncnc2ccccc12)C1CCCCC1,"inconclusive: 7.08 µM [activator, partial curve, poor fit]",
O=[N+]([O-])c1ccc2c(c1)C=C/C2=C\c1ccc(C=S)cc1,active: 5.62 µM,
COc1ccc(NC(=O)c2cc3ccccc3o/c2=N\NS(=O)(=O)c2ccc(C)cc2)cc1,active: 5.01 µM,
O=C(O)c1ccc(N/N=C/c2c(F)cccc2Cl)cc1,,inconclusive: -83% [activator]
O=C(C1CCN(S(=O)(=O)c2cccc3cccnc23)CC1)N1CCn2c1nc1ccccc12,inactive,

SMILES,Potency,activation
COc1ccc(CCNC(=O)c2cccn2C)cc1,active: 2.82 µM,
COCCn1c(=NC(=O)c2sc3ccccc3c2Cl)sc2cc(S(N)(=O)=O)ccc21,inactive,
CCc1ccn2cc(-c3cc(-c4ccccc4)no3)nc2c1,inactive,
Cc1ccc(CNC(=O)/C=C/c2cccs2)cc1,"inconclusive: 12.6 µM [activator, partial curve, poor fit]",
Cc1ccc(C)c(Cn2c(=O)n(Cc3ccccc3)c(=O)c3sc4ccccc4c32)c1,inactive,
CSc1ccccc1OCc1cc(C(=O)N(C)Cc2cnccn2)no1,"inconclusive: 10 µM [activator, partial curve, poor fit]",
O=C(Nc1cccc(Cl)c1)OCc1ccccn1,"inconclusive: 11.2 µM [activator, partial curve, poor fit]",
S=C(NCCc1ccccc1)Nc1ccc(Cl)cc1,"inconclusive: 11.2 µM [activator, partial curve, poor fit]",
Cc1ccccc1/C=C\c1nc2ccccc2c(=O)[nH]1,"inconclusive: 1.58 µM [activator, partial curve, poor fit]",
O=C(c1cc(-c2cccc(Cl)c2)on1)N1CCCCCC1,active: 12.6 µM,
Nc1nnc(SCc2coc(-c3ccc(Cl)cc3)n2)s1,"inconclusive: 2.82 µM [activator, partial curve, poor fit]",
CC(C)N1CCN(Cc2ccc(C#CC(C)(C)O)s2)CC1CCO (configuration not stated),inactive,
C/C(=C\c1ccccc1)C(=O)Nc1ccc(Cl)cn1,active: 7.94 µM,
CCOC(=O)C(C)On1c(-c2ccccc2)nc2ccc([N+](=O)[O-])cc21 (configuration not stated),"inconclusive: 12.6 µM [activator, single point]",
CC(=O)Nc1ccc(-c2csc(NC(=O)C3=COCCO3)n2)cc1,"inconclusive: 10 µM [activator, partial curve, poor fit]",
COc1ccc(OC)c(-c2cc(C(=O)N/N=C/c3cc(OC)c(OC)cc3OC)c3ccccc3n2)c1,,inconclusive: 82.1% [activator]
Cc1nc(NC(=O)C2CC3CCCC(C2)C3=O)sc1C (configuration not stated),"inconclusive: 17.8 µM [activator, partial curve, poor fit]",
O=C(O)CSc1nc2sc3c(c2c(=O)n1Cc1ccccc1)CCCCC3,"inconclusive: 22.4 µM [activator, single point]",
COc1ccccc1NC(=O)CSc1n[nH]c(-c2ccco2)n1,inactive,
CCn1c2ccc(C)cc2c2nnc(SCCN3CCCCC3)nc21,inactive,
CCCc1ccc(-c2cc(C(=O)NCCc3ccc(S(N)(=O)=O)cc3)c3ccccc3n2)cc1,"inconclusive: 12.6 µM [activator, partial curve, poor fit]",
C=CCNC(=O)COc1ccc(Br)cc1Cl,"inconclusive: 11.2 µM [activator, partial curve, poor fit]",
CC(=O)Nc1ccc2nc(-c3ccco3)[nH]c2c1,"inconclusive: 17.8 µM [activator, partial curve, poor fit]",
CCCN1CCC(=O)N(CCSc2ccccc2)CC1,"inconclusive: 3.16 µM [activator, partial curve, poor fit]",

SMILES,Potency,activation
O=C(N/N=C/c1ccc(O)cc1)c1cc(C2CC2)[nH]n1,inactive,
O=C(NC1CCCC1)c1cc(-c2ccccc2Cl)on1,"inconclusive: 0.631 µM [activator, full curve, poor fit]",
CC1CCN(C(=O)CCc2nnc(-c3ccccc3)o2)CC1,active: 12.6 µM,
CCCCn1nnnc1C(c1cc2ccccc2o1)N1CCOCC1 (configuration not stated),inactive,
CN1CCCC1CCNc1ccc2c(=O)c3ccccc3oc2c1 (configuration not stated),active: 12.6 µM,
CCOc1ccc(NC(=O)CC(NC(C)=O)c2ccccc2)cc1S(=O)(=O)N1CCCC1 (configuration not stated),inactive,
CCc1c(C)c2ccc(OC3CCCCC3=O)cc2oc1=O (configuration not stated),"inconclusive: 10 µM [activator, partial curve, poor fit]",
c1ccc2oc(SCc3cn4ccsc4n3)nc2c1,"inconclusive: 1.26 µM [activator, partial curve, poor fit]",
COc1ccccc1CN1CC(C(=O)NCc2c(F)ccc(C)c2F)CCC1=O (configuration not stated),"inconclusive: 17.8 µM [activator, partial curve, poor fit]",
COc1c(C)cc(Br)cc1C(=O)NC(=S)Nc1ccc(Cl)c(C(=O)O)c1,"inconclusive: 11.2 µM [activator, partial curve, poor fit]",
OCCN1CCN(CC(O)COc2ccc(-c3ccccc3)cc2)CC1 (configuration not stated),"inconclusive: 35.5 µM [activator, single point]",
C/C(=N\Nc1nncc2ccccc12)c1ccc(OCC(=O)N(C)C)cc1,"inconclusive: 15.8 µM [activator, single point]",
S=C(Nc1cccc(Cl)c1)Nc1ccc2c(c1)OCCO2,active: 11.2 µM,
Cn1c(/C(C#N)=C(\O)CN2CCN(Cc3ccccc3)CC2)nc2ccccc21,inactive,
CC(=O)c1cnc2cc(-c3ccccc3)nn2c1C,"inconclusive: 2.51 µM [activator, full curve, poor fit]",
Cc1ccc(NC(=O)CNC(=O)c2ccco2)cc1,active: 11.2 µM,
CC1CCN(C(=O)CNC(=O)c2ccc(Cl)cc2Cl)CC1,"inconclusive: 12.6 µM [activator, partial curve, poor fit]",
O=C(CCSc1ccccc1)N1CCOCC1,"inconclusive: 2.51 µM [activator, full curve, poor fit]",
Nc1nn(-c2cccc(F)n2)cc1-c1ccc(Cl)cc1,"inconclusive: 2.82 µM [activator, full curve, poor fit]",
CCOC(=O)CNC(=O)c1sc(NC(=O)c2ccccc2F)nc1C,"inconclusive: 1.58 µM [activator, full curve, poor fit]",
COc1ccc(NC(=O)c2cccnn2)cc1,active: 12.6 µM,
CN(C)c1ccc(CN(C(=O)c2cc3ccccc3oc2=O)C2CCS(=O)(=O)C2)cc1 (configuration not stated),"inconclusive: 31.6 µM [activator, single point]",
COC(=O)c1ccc2nc(NC(=O)C3CCCCC3)sc2c1,,inconclusive: 93.3% [activator]
COc1cccc(-c2csc(N3CCN(CC(=O)Nc4ccc5c(c4)OCO5)CC3)n2)c1,inactive,
